Paper PMC10907715
Results are given in words; binding and its absence hold for the method and conditions named. Some results given as binding are weak or reduced against the parent protein; the word gives no strength. For part of these data: Sequences can lack the tags named with a protein. One block for each binder: values may come before it.

Sequences of proteins named here, by UniProt entry; tags and fusion partners are left off. Residues count along the entry.
UniProt P27467, residues 19-352: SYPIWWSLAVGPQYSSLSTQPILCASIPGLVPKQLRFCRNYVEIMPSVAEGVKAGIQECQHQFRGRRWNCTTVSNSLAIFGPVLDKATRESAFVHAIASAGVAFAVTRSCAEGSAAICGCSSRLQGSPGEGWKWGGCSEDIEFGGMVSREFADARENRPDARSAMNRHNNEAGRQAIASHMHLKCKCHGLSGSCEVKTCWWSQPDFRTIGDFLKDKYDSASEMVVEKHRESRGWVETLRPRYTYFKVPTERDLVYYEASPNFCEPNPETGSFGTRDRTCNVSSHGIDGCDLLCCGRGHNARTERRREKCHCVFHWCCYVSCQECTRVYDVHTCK

Experiments:
[1] = target: FLAG-GFP-tagged mouse Wnt3a (mouse), P27467; test: AUC; AUC-FDS (fluorescence detection) of the culture supernatant of fluorescent Wnt-expressing cells co-cultured with sFRP-expressing or parental HEK293 cells; FluoroBrite DMEM with 8% FBS, no detergent; 20 °C, 42,000 rpm; c(s) model of SEDFIT; settings: remark: other sources report otherwise
[2] = target: T1, FLAG-mClover-mouse Wnt5a (mouse) (UniProt P22725); test: as above
T1 sequence: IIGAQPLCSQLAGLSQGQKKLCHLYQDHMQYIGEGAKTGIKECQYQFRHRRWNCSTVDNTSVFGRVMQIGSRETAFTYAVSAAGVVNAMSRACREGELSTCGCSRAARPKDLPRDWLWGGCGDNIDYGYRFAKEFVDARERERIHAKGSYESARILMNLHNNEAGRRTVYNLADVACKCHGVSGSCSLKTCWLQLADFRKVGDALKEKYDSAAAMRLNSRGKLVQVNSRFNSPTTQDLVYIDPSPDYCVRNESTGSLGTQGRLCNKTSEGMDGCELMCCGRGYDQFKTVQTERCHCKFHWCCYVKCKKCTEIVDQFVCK

[3] = target: T2, mouse Wnt11-mClover (mouse) (UniProt P48615); test: as above
T2 sequence: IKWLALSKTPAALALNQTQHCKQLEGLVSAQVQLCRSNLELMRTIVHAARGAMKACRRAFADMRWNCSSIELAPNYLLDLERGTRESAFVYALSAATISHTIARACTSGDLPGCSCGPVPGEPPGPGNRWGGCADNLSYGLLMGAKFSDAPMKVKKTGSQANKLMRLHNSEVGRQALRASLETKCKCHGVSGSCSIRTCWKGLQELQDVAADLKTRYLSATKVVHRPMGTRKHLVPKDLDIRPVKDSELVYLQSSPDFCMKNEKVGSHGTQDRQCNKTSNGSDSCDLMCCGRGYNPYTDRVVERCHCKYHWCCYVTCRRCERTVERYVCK

[4] = target: FLAG-GFP-tagged mouse Wnt3a (mouse) (UniProt P27467); test: as above
[5] = target: FLAG-GFP-tagged mouse Wnt3a (mouse) (UniProt P27467); test: AUC; AUC-FDS of GFP-Wnt3a/sFRP2 with or without culture supernatant of cells expressing exFzd8

binding [1]: no binding
B1: mouse sFRP3-FLAG, P97401 33-323 (protein)
chain: AACEPVRIPLCKSLPWNMTKMPNHLHHSTQANAILAMEQFEGLLGTHCSPDLLFFLCAMYAPICTIDFQHEPIKPCKSVCERARQGCEPILIKYRHSWPESLACDELPVYDRGVCISPEAIVTADGADFPMDSSTGHCRGASSERCKCKPVRATQKTYFRNNYNYVIRAKVKEVKMKCHDVTAVVEVKEILKASLVNIPRDTVNLYTTSGCLCPPLTVNEEYVIMGYEDEERSRLLLVEGSIAEKWKDRLGKKVKRWDMKLRHLGLGKTDASDSTQNQKSGRNSNPRPARS

binding [2]: no binding
binding [3]: no binding
B2: mouse sFRP3-FLAG (protein, UniProt P97401 33-323)
chain: B1 chain

binding [1]: no binding
B3: mouse sFRP4-FLAG, Q9Z1N6 19-351 (protein)
chain: VRGAPCEAVRIPMCRHMPWNITRMPNHLHHSTQENAILAIEQYEELVDVNCSSVLRFFLCAMYAPICTLEFLHDPIKPCKSVCQRARDDCEPLMKMYNHSWPESLACDELPVYDRGVCISPEAIVTDLPEDVKWIDITPDMMVQERSFDADCKRLSPDRCKCKKVKPTLATYLSKNYSYVIHAKIKAVQRSGCNEVTTVVDVKEIFKSLSPIPRTQVPLITNSSCQCPHILPHQDVLIMCYEWRSRMMLLENCLVEKWRDQLSRRSIQWEERLQEQQRTIQDKKQIASRTSRTSRSNPPKSKGRPPAPKPASPKKNIKARSAPKKSNLKKSAS

binding [2]: no binding
binding [3]: no binding
B4: mouse sFRP4-FLAG (protein, UniProt Q9Z1N6 19-351)
chain: B3 chain

binding [4]: binds
B5: afamin (protein, UniProt G3MYZ3 22-604)
chain: LPTQPQDVDDVRITQKFIDDNIGYITIIAFAQYIQEASFEEVEMLVKAMTEYRDKCLADRTLPECSKLANEVLLENICAMEGLPQKYNFSHCCHKVDFERRLCFFHNKKADIGLLPPLPTLDPEEKCQTYKNNRESFLNNYVYEVSRRNPFVFAPTLLTVAARFEEMTKTCCEEQEKANCFQTKAEPFIYYLKALSSYQKNACRALMKFGRQILQSINIAILSQKFPKIGFKQLTSLLEDVSSKYDGCCEGDVVQCIRGRSKVMSHICSKQDSISSKIKDCCEKKIPERGECIIYSNKDDRPNDLSLREAKFIESDNVCEKRDADQANFMAEFLYEYSRRHPELSTPELLRIAKVYKDLLKECCNMENPPECYRHAENRFNETTEKSLKIVQRECEHFQNLGKDDLKYHYLINLTKLAPQLSTEELTFLGKEMVMALTTCCTLSEEFACVDNLVDLVLGELCGINENRNINPAVDHCCKTNFAFRRSCFESLEADKTYVPPSTSQGLFTFHADLCQAHNEELQRKKDRFLVNLVKLKPELAGEELWSLLADFTNVVEKCCKAQEPEACFKEESPKLAAKSQAA

binding [5]: binds
binding [3]: no binding
B6: mouse sFRP2-FLAG (protein, UniProt P97299 25-295)
chain: LFLFGQPDFSYKRSNCKPIPANLQLCHGIEYQNMRLPNLLGHETMKEVLEQAGAWIPLVMKQCHPDTKKFLCSLFAPVCLDDLDETIQPCHSLCVQVKDRCAPVMSAFGFPWPDMLECDRFPQDNDLCIPLASSDHLLPATEEAPKVCEACKTKNEDDNDIMETLCKNDFALKIKVKEITYINRDTKIILETKSKTIYKLNGVSERDLKKSVLWLKDSLQCTCEEMNDINAPYLVMGQKQGGELVITSVKRWQKGQREFKRISRSIRKLQC
